Counter-ions that a name gives are not always drawn. The list shows a part of the results. The data scatter; read single values as rough. Residues, ends and D or L forms follow the SMILES beside them.
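Note: High-content imaging of ALDEFLUOR-stained cells with Hoechst-labelled nuclei in 384-well plates, triplicate wells, scored as Z-score against 0.1% DMSO vehicle, negative meaning fewer ALDHbr cells.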

In this experiment the test system is SUM159. Nature of the experiment: ALDHbr (CSC) cell proportion score relative to DMSO vehicle (ratio to DMSO); breast (SUM159) / gastric (MKN45) / pancreatic (PANC1) / colon cancer lines; ALDHbr cells have high ALDH activity and are rich in cancer stem cells (CSC); higher = more CSC (ALDHbr) cells remaining. Conditions: 10 µM; 72 h.
Turning to `CC[C@H]1OC(=O)[C@H](C)[C@@H](O[C@H]2C[C@@](C)(OC)[C@@H](O)[C@H](C)O2)[C@H](C)[C@@H](O[C@@H]2O[C@H](C)C[C@H](N(C)C)[C@H]2O)[C@](C)(OC)C[C@@H](C)C(=O)[C@H](C)[C@@H](O)[C@]1(C)O` [Clarithromycin], the ALDHbr was found to be 0.917. Take `CC(=O)N[C@@H](CS)C(=O)O` [Acetylcysteine]: the ALDHbr stood at 0.949. For `CO/N=C1\CN(c2nc3c(cc2F)c(=O)c(C(=O)O)cn3C2CC2)CC1CN` (stereo not given) [Gemifloxacin mesylate], the ALDHbr amounted to 1.17. As to `Cc1c(O)c(=O)n(-c2ccccc2)n1C` [Antipyrine, 4-hydroxy], the ALDHbr is 1.31.

For `O=C1[C@H](CC[C@H](O)c2ccc(F)cc2)[C@@H](c2ccc(O)cc2)N1c1ccc(F)cc1` [Ezetimibe], the ALDHbr is 0.8. For the compound `CC(C)(O/N=C(\C(=O)N[C@@H]1C(=O)N2C(C(=O)[O-])=C(C[n+]3ccccc3)CS[C@H]12)c1csc(N)n1)C(=O)O` [Ceftazidime pentahydrate], the ALDHbr worked out at 0.846.

Take `CN(C(=O)C(Cl)Cl)c1ccc(OC(=O)c2ccco2)cc1` [Diloxanide furoate]: the ALDHbr was found to be 0.118. The same measure for `CC(C(=O)O)c1cccc(Oc2ccccc2)c1` (stereo not given) [Fenoprofen calcium salt dihydrate]: 0.926; for `CCOC(=O)C1=C(C)NC(C)=C(C(=O)OC)C1c1cccc([N+](=O)[O-])c1` (stereo not given) [Nitrendipine]: 0.922; for `NS(=O)(=O)c1cc(Cl)c(Cl)c(S(N)(=O)=O)c1` [Dichlorphenamide]: 1.05. As to `CO[C@H]1C[C@H](O[C@H]2[C@H](C)[C@@H](O[C@@H]3O[C@H](C)C[C@H](N(C)C)[C@H]3OC(C)=O)[C@@H](C)C[C@@]3(CO3)C(=O)[C@H](C)[C@@H](OC(C)=O)[C@@H](C)[C@@H](C)OC(=O)[C@@H]2C)O[C@@H](C)[C@@H]1OC(C)=O` [Troleandomycin], the ALDHbr was 1.58. Under `CC1Cc2ccccc2N1NC(=O)c1ccc(Cl)c(S(N)(=O)=O)c1` (stereo not given) [Indapamide] stands 1.06. For the compound `CCCN(CCC)C(=O)C(CCC(=O)O)NC(=O)c1ccccc1` (stereo not given) [Proglumide], the ALDHbr is 0.961. As to `CN[C@H]1CC[C@@H](c2ccc(Cl)c(Cl)c2)c2ccccc21` [Sertraline], the ALDHbr came to 0.348.

With `CCCCNc1cc(C(=O)O)cc(S(N)(=O)=O)c1Oc1ccccc1` [Bumetanide], the ALDHbr was 1.03.

As for `CC(COc1ccccc1)N(CCCl)Cc1ccccc1` (stereo not given) [Phenoxybenzamine hydrochloride], the ALDHbr stood at 0.94. On to `Cc1c(N(C)CS(=O)(=O)O)c(=O)n(-c2ccccc2)n1C` [Dipyrone], for which the ALDHbr is 0.782. Under `COc1ccc2cc(CCC(C)=O)ccc2c1` [Nabumetone] stands 1.1; under `O=C1CC2(CCCC2)CC(=O)N1CCCCN1CCN(c2ncccn2)CC1` [Buspirone hydrochloride], 0.59.

With `Cc1c(-c2ccccc2)oc2c(C(=O)OCCN3CCCCC3)cccc2c1=O` [Flavoxate hydrochloride], the ALDHbr stood at 0.995.

As to `O=C(Oc1cccc2cccnc12)c1ccccc1` [Benzoxiquine], the ALDHbr is 0. `CNCCC(Oc1ccc(C(F)(F)F)cc1)c1ccccc1` (stereo not given) [Fluoxetine hydrochloride]: the ALDHbr is 0.576. Consider `C[C@]12C=CC(=O)C=C1CC[C@H]1[C@@H]3C[C@@H](O)[C@](O)(C(=O)CO)[C@@]3(C)C[C@H](O)[C@@]12F` [Triamcinolone], for which the ALDHbr stood at 1.12. Regarding `CC(=O)[C@H]1CC[C@H]2[C@@H]3C=CC4=CC(=O)CC[C@@]4(C)[C@@H]3CC[C@]12C` [Dydrogesterone], the ALDHbr stood at 1.27.

`CC(C)Cc1ccc([C@H](C)C(=O)O)cc1` [S-(+)-ibuprofen]: the ALDHbr came to 0.942.

Regarding `CCCNC(C)C(=O)Nc1c(C)csc1C(=O)OC` (stereo not given) [Articaine hydrochloride], the ALDHbr amounted to 1.04. `CN1CCCC(CC2c3ccccc3Sc3ccccc32)C1` (stereo not given) [Metixene hydrochloride]: the ALDHbr is 0.341. On to `COc1ccccc1N1CCN(CC(O)COc2cccc3ccccc23)CC1` (stereo not given) [Naftopidil dihydrochloride], for which the ALDHbr came out at 0.835.

For `CC(=O)N(CC(O)CN(C(C)=O)c1c(I)c(C(=O)NCC(O)CO)c(I)c(C(=O)NCC(O)CO)c1I)c1c(I)c(C(=O)NCC(O)CO)c(I)c(C(=O)NCC(O)CO)c1I` (stereo not given) [Iodixanol], the ALDHbr came out at 1.02.

For `CC(C)NC[C@@H](O)COc1ccc(CC(N)=O)cc1` [(R)-(+)-Atenolol], the ALDHbr turned out to be 1.54. As for `O=C(CCCN1CCN(c2ccccn2)CC1)c1ccc(F)cc1` [Azaperone], the ALDHbr was 1.01. As for `CC(=O)[C@@]1(O)CC[C@H]2[C@@H]3C[C@H](C)C4=CC(=O)C=C[C@]4(C)[C@@]3(F)[C@@H](O)C[C@@]21C` [Fluorometholone], the ALDHbr was found to be 1.14. The same measure for `CC(=O)N(O)CCCCCNC(=O)CCC(=O)N(O)CCCCCNC(=O)CCC(=O)N(O)CCCCCN` [Deferoxamine mesylate]: 1.29; for `COc1ccc2c(c1)C(=O)N(CCc1ccc(S(=O)(=O)NC(=O)NC3CCCCC3)cc1)C(=O)C2(C)C` [Gliquidone]: 1.02. For `CCOC(=O)C1=C(C)NC(C)=C(C(=O)OCC)C1c1ccccc1/C=C/C(=O)OC(C)(C)C` [Lacidipine], the ALDHbr came out at 1.08. Consider `CCCCC[C@H](O)/C=C/[C@H]1[C@H](O)CC(=O)[C@@H]1CCCCCCC(=O)O` [Alprostadil], for which the ALDHbr worked out at 1.62. On to `NC[C@@H]1O[C@@H](O[C@H]2[C@H](O)[C@@H](O[C@H]3O[C@H](CO)[C@@H](O)[C@H](N)[C@H]3O)[C@H](N)C[C@@H]2N)[C@@H](O)[C@H](O)[C@H]1O` [Kanamycin A sulfate], for which the ALDHbr was 1.24. Consider `O=C1CC[C@@H](C(=O)N2CSC[C@H]2C(=O)O)N1` [Pidotimod] (HELM PEPTIDE1{[Glp].[O=C(O)[C@@H]1CSCN1[*:1]]}$$$$V2.0), for which the ALDHbr stood at 1.09. Turning to `CCCCC1C(=O)N(c2ccccc2)N(c2ccc(O)cc2)C1=O` (stereo not given) [Oxyphenbutazone], the ALDHbr came to 0.879.

In the case of `CN(C)CCN1C(=O)c2ccccc2N(C)c2ccccc21` [Dibenzepine hydrochloride], the ALDHbr amounted to 1.13.
